The supplement of paper PMC10126150
Values marked as one replicate rest on one cluster of the flow cell; about a third of the high ones do not repeat.

These sequences were tested on ATP (assay: switch fluorescence ratio, 500 uM ATP over buffer (Cy3 cluster intensity, sum of 5 cycles each) (fold (ratio)); higher = stronger signal-on switching upon ATP binding; sequences stand for … in TCGTCGGCAGCGTCAGATGTGTATAAGAGACAGTTTTTTTTTTTTTTTTTTTTTTTTT…TC). Settings: aptamer strand: ATP DNA aptamer (quencher-CACCTGGGGGAGTATTGCGGAGGAAGG + anchor), 100 nM annealed; ATP concentration: 500 uM; one replicate.
Method in brief: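 Five buffer/ATP imaging cycles were run on Cy3-labelled switching-strand clusters on a modified Illumina MiSeq flow-cell, with NaOH stripping and re-annealing between cycles. In each cycle, clusters annealed to 100 nM quencher-labelled ATP aptamer were imaged in selection buffer, then after 15 min with 500 uM ATP at 22 °C. Per cluster, the fluorescence ratio is summed target-cycle over summed buffer-cycle Cy3 intensity, averaged per switch-domain sequence. Only clusters within 100-1000 RFU were kept.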
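Note: ATP exposure 15 min at 22 °C before imaging.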

Sequence | switch fluorescence ratio
CCGGTTTGAC | 1.38
CCGTAAGATG | 1.09
CCGTAGACTG | 1.32
CCGTAGATCA | 1.34
CCGTAGGTGG | 1.08
CCGTATAGGC | 1.23
CCGTATGCTT | 1.1
CCGTATGGGG | 0.989
CCGTATGGTC | 1.1
CCGTCAACCG | 1.17
CCGTCAGGCT | 1
CCGTGCCCGG | 1.12
CCGTGCTACC | 3.63
CCGTGGCGGT | 1.16
CCGTGTGTAG | 1.03
CCGTGTTTGT | 1.04
CCGTTAGTCA | 1.13
CCGTTCAAC | 1.75
CCGTTGAGTT | 1.03
CCGTTGGCTC | 1.44
CCGTTGTCCC | 1.22
CCGTTTGATA | 1
CCGTTTGTTG | 1.04
CCTAAAAAAA | 3.19
CCTAAACTTC | 0.996
CCTACAGGAC | 1.43

Sequence | switch fluorescence ratio
CCTACCCACT | 1.62
CCTACCGTTG | 1.75
CCTACTCATT | 1.89
CCTAGCATTT | 1.62
CCTAGCCACG | 1.07
CCTAGCCGGT | 1.04
CCTAGCCTAA | 1.11
CCTAGCGCTC | 2.94
CCTAGGTCGG | 1.07
CCTAGTATTT | 1.02
CCTATATAAG | 1.03
CCTATATGTT | 1.02
CCTATTATGC | 1.14
CCTATTCTCG | 1.02
CCTATTGGAG | 0.979
CCTCACCAGG | 3.1
CCTCACCGAG | 1.13
CCTCAGAAAT | 2.35
CCTCAGAAGG | 1.14
CCTCATCGGT | 1.22
CCTCCCCTTG | 2.43
CCTCCTGACT | 2.4
CCTCGGACCT | 1.42
CCTCGGAGC | 1.38
CCTCGGCAGG | 4.75
CCTCGGGGGA | 3.02

Sequence | switch fluorescence ratio
CCTCGTAGCG | 1.06
CCTCGTCCAT | 1.65
CCTCGTG | 1.04
CCTCGTTTCG | 1.07
CCTCTAGACC | 2.46
CCTCTCGG | 1.48
CCTCTCGGTA | 2.48
CCTCTTACCG | 1.07
CCTCTTCCCG | 1.48
CCTCTTGTGT | 1.04
CCTCTTTGAA | 1.14
CCTGAAAACT | 1.03
CCTGAAGATG | 1.06
CCTGAATCGT | 1.01
CCTGACTATT | 1.05
CCTGAGTT | 0.999
CCTGCAGCTA | 5
CCTGCAGTAG | 5.33
CCTGCCCGAA | 1.29
CCTGCCGC | 1.38
CCTGCTCAAG | 1.36
CCTGCTGAAA | 1.08
CCTGGCCCCA | 0.989
CCTGGCCTCC | 1.83
CCTGGGACCG | 1.09
CCTGGGGGT | 0.98

Sequence | switch fluorescence ratio
CCTGGTGAGA | 1.35
CCTGGTGCAG | 1.13
CCTGTAAACT | 1.06
CCTGTATAGT | 1.02
CCTGTATGCT | 1.05
CCTGTCAAGG | 1.01
CCTGTGCGGT | 1.01
CCTGTGTATG | 1
CCTGTTATAG | 1.1
CCTGTTATTA | 0.977
CCTGTTGCTT | 1.02
CCTGTTGTCC | 1.04
CCTGTTTGCC | 1.02
CCTTAAGTGA | 1.2
CCTTAGCTAC | 2.44
CCTTAGTGTG | 1.04
CCTTATAATA | 1.01
CCTTCATGAC | 1.64
CCTTCCACCT | 1.4
CCTTCTGGAT | 1.03
CCTTGCCCTA | 1.07
CCTTGCGAAT | 1.33
CCTTGTTTTC | 1.03
CCTTTATCCC | 1.16
CCTTTATGTT | 1.03
CCTTTCAGCT | 1.1

Sequence | switch fluorescence ratio
CCTTTGGCTG | 1.04
CCTTTTGTCA | 1.02
CGAAAAAAGG | 0.979
CGAAAAGTTA | 0.992
CGAAAATGTC | 1.02
CGAAAATTGC | 1
CGAAACATTG | 1.03
CGAAATGGTT | 1.03
CGAACACGTG | 1
CGAACAGACA | 1.05
CGAACCAAAC | 2.13
CGAACCCGCC | 1.51
CGAACGATA | 1.18
CGAACGTCCC | 1.73
CGAAGAAGT | 0.964
CGAAGCGTCG | 1.04
CGAAGGATAA | 1.22
CGAAGGCACC | 1.13
CGAAGGTGGG | 1.02
CGAAGTACGG | 1.24
CGAAGTGGT | 1.01
CGAATAGGTC | 1
CGAATCGGCC | 1.01
CGAATGGAA | 1.05
CGAATGGACG | 1.18
CGAATGTAGT | 0.95

Sequence | switch fluorescence ratio
CGAATTGTGC | 0.954
CGAATTTTG | 0.98
CGACACCTTG | 0.997
CGACACTTGG | 1
CGACAGCTGA | 1.12
CGACAGTGTC | 0.993
CGACATAGGG | 1.07
CGACATCAGT | 0.966
CGACATGGCA | 1.06
CGACATTTAG | 1.02
CGACATTTTC | 1.04
CGACCCGTCA | 1.04
CGACCGGGAG | 1.02
CGACCTATAA | 1.56
CGACGAGGGT | 1.06
CGACGATG | 0.985
CGACGGATGT | 1.05
CGACGGGGGT | 1.02
CGACGTTTAG | 1.01
CGACTAAGGC | 1.06
CGACTACTTA | 1.04
CGACTCTAAG | 1.03
CGACTCTAAT | 1.19
CGACTGGCTA | 1.5
CGACTGGGTC | 0.985
CGACTGTAGC | 1.25

Sequence | switch fluorescence ratio
CGACTTCGGA | 1.07
CGACTTGTAC | 2.33
CGACTTTCAT | 1.17
CGAGAAAAGC | 0.99
CGAGAAGCCT | 1.06
CGAGAAGGAC | 1.26
CGAGAAGGGG | 0.999
CGAGAGATGG | 1.01
CGAGAGCATG | 1.15
CGAGAGGTAT | 0.991
CGAGATAGAA | 0.956
CGAGATGTTT | 0.938
CGAGATTATT | 1.06
CGAGATTCTC | 1.01
CGAGCAGGGT | 1.61
CGAGCCGAGG | 1.11
CGAGCCGTTG | 0.996
CGAGCGCAGG | 1.35
CGAGCGTTTG | 1.06
CGAGCTGGTG | 1.15
CGAGGCATCC | 1.49
CGAGGCGTGT | 0.993
CGAGGGGTA | 1.03
CGAGGTGTTT | 1.03
CGAGTAACTC | 1.02
CGAGTATTTC | 0.977

Sequence | switch fluorescence ratio
CGAGTCAACG | 1.05
CGAGTCAACT | 1.06
CGAGTCGAGG | 0.976
CGAGTCGGTA | 0.995
CGAGTCTTCG | 1
CGAGTCTTGG | 0.986
CGAGTGCCGA | 0.997
CGAGTGCGCG | 0.924
CGAGTGTCCG | 0.93
CGAGTTTCCT | 1.03
CGATAAGTC | 1.02
CGATAATACC | 1.27
CGATAATAGT | 1.03
CGATACAGGG | 1.02
CGATACTTTT | 0.992
CGATAGAACC | 1.01
CGATAGGACT | 1.04
CGATAGGGC | 0.984
CGATCAAATG | 1.03
